# The campaign covered roughly 310,000 compounds. About 14,000 (4.5%) showed an effect of 50% or more. The effect is printed as a negative number. Some of the results follow.
# Biological target: human ether-à-go-go-related gene (hERG) potassium channel (human, UniProt Q12809)
# Assay: primary screen, population patch clamp on CHO cells stably expressing hERG
# 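Further: peak tail current of the secondary pulse compared with the same well before compound.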
# human ether-à-go-go-related gene (hERG) potassium channel, sequence (Q12809 whole entry, looked up): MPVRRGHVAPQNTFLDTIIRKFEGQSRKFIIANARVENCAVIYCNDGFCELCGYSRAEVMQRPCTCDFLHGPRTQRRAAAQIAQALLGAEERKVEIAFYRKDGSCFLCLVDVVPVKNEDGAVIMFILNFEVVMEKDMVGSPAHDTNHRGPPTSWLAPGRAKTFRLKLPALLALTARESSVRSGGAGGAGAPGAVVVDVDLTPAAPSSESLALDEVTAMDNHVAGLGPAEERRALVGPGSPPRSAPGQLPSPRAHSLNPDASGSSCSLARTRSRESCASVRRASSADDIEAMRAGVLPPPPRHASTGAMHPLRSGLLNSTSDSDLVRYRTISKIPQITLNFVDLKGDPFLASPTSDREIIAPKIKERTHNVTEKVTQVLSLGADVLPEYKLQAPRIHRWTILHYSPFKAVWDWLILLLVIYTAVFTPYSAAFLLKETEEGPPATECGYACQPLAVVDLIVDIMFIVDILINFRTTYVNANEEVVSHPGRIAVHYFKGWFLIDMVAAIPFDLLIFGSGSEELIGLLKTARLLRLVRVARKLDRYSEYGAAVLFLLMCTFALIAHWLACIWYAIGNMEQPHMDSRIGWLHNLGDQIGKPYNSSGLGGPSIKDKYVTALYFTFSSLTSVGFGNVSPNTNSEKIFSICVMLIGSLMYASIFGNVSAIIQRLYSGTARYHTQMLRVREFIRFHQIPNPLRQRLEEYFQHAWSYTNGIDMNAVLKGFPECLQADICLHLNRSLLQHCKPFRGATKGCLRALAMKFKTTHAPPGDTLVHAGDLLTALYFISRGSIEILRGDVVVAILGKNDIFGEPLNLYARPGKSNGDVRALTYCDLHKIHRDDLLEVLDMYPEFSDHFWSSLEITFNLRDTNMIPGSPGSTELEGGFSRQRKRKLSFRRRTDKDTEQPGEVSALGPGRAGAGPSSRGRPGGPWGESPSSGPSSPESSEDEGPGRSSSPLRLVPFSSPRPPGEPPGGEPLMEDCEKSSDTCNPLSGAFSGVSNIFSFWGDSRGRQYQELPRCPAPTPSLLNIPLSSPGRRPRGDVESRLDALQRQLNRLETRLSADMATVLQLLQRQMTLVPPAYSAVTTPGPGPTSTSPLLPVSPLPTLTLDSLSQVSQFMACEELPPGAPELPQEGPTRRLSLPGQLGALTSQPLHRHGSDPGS
row,SMILES,"hERG current change (%, negative = inhibition) at 10uM [%]"
1,O=C(COC(=O)c1c(F)cccc1F)NCCNC(=O)COC(=O)c1c(F)cccc1F,-10.9
2,O=C(O)c1cccnc1SCc1cccc(Br)c1,17.6
3,C=CCn1c(SCc2cc(=O)n3ccsc3n2)nnc1C1CCCCC1,-11.7
4,Cc1cc(Nc2ncc(Cl)cc2Cl)n(-c2ccccc2)n1,-6.29
5,CC1CN(C(=O)c2cccc(S(=O)(=O)N3CCN(c4ccc(F)cc4)CC3)c2)CC(C)O1 (stereo not shown),-45.4
6,Cc1sc(NC(=O)c2oc3ccccc3c2C)c(C#N)c1C,0.66
7,O=C(NNS(=O)(=O)c1ccc(C(=O)NC2CCCC2)cc1)c1ccncc1,19.1
8,Cc1cc(C)c(C)c(S(=O)(=O)NNC(=O)c2cccc(S(=O)(=O)N3CCOCC3)c2)c1C,14.2
9,CC(C)(C)NC(=O)CN(Cc1cccs1)C(=O)CNS(=O)(=O)c1ccc(F)cc1,3.35
10,Cc1cccc(NC(=O)c2cccc3c2-c2ccccc2C3=O)n1,-26.6
11,CN(Cc1ccccc1)C(=O)c1ccccc1NC(=O)C1=CSCCO1,0.439
12,O=C1CC2(CCCCC2)Oc2ccc(F)cc21,-4.03
13,CCCCOCCCNC(=O)Cc1ccccc1OC,12
14,CCc1nc(SCC(=O)Nc2cc(C)on2)c2c(C)c(C)sc2n1,1.38
15,C=CCNc1nc(Cl)nc(NC2CCCCC2)n1,12
16,O=c1[nH]c(=O)c2nnc(N/N=C\c3ccc(O)cc3)nc2[nH]1,18.9
17,CN1CCCN(C(=O)c2cc3c(s2)CCCC3)CC1,-17.2
18,Cn1cc(S(=O)(=O)NC2CCCCCC2)c(=O)n(C)c1=O,11.9
19,COc1cccc(NS(=O)(=O)c2ccc3[nH]cc(C(=O)NCCN4CCOCC4)c(=O)c3c2)c1,8.37
20,O=C(CCNS(=O)(=O)c1c(Cl)cccc1Cl)OCC(=O)c1ccccc1F,6.94
21,COC(=O)C1=C(c2ccc(OC(F)(F)F)cc2)C[C@@H]2CC[C@H]1N2C(=O)NC(C)C,-18.3
22,O=C1CS/C(=N/N=C/c2ccc(OS(=O)(=O)c3ccccc3)cc2)N1,14.7
23,Cc1ccccc1-c1nc(CS(=O)CC(=O)NCc2ccc3c(c2)OCO3)c(C)o1 (stereo not shown),-27.8
24,Cc1ccc(C(=O)N2CCN(c3cnn(C)c(=O)c3Cl)CC2)cc1,-31.1
25,CN1C(=O)C(=Cc2ccc(Sc3ccccc3)o2)C(=O)N(C)C1=O,16.2
26,COc1cccc(C2=NOC(C(=O)Nc3ccc4c(c3)OCO4)C2)c1 (stereo not shown),10.1
27,O=C(Cn1ccc2ccccc2c1=O)NCC(=O)N1CCN(c2ccc(F)cc2)CC1,-4.91
28,O=C(O)C1CCCCC1C(=O)Nc1ccc(Cl)cc1 (stereo not shown),0.877

row,SMILES,"hERG current change (%, negative = inhibition) at 10uM [%]"
1,CCN(CC)S(=O)(=O)c1ccc(N2CCCCC2)c(NC(=O)C2=COCCO2)c1,-12.4
2,COc1cc(C2C(C#N)=C(C)NC(C)=C2C#N)cc(OC)c1OC,16.8
3,Cc1cccc(Cc2nnc(CCC(=O)N3CCCC(CN4CCOCC4)C3)o2)c1 (stereo not shown),12
4,Cc1ccc(CCNS(=O)(=O)c2cc3c(cc2C)NC(=O)CO3)cc1,-28.8
5,CCCCC(CC)CNC(=O)Cn1c(=O)[nH]c2ccsc2c1=O (stereo not shown),-8.15
6,COc1ccc(S(=O)(=O)Nc2cc(C)ccc2OC)cc1C,-1.8
7,O=C(Nc1ccc(N2CCN(Cc3ccccc3F)CC2)cc1)c1ccc([N+](=O)[O-])o1,6.55
8,Cc1ccccc1C(=O)Nc1nc(=S)ss1,13.5
9,c1ccc(C2Nc3ccccc3C3OCCCC23)cc1 (stereo not shown),6.43
10,Cc1ccc(N2C(=O)NC(=O)/C(=C\c3cn(CC(=O)O)c4ccccc34)C2=O)cc1,16.8
11,COC(=O)c1c(NC(NC(=O)C(C)(C)C)C(Cl)(Cl)Cl)sc2c1CCC2 (stereo not shown),25.9
12,CN1CCCC(OC(=O)c2cccc(Br)c2)C1.Cl (stereo not shown),-3.12
13,COc1ccc(Nc2ncnc3ccc([N+](=O)[O-])cc23)c(OC)c1,-0.867
14,COc1ccccc1-c1c(-c2ccc(OCC(=O)NN)cc2O)n[nH]c1C(F)(F)F,2.58
15,O=S(=O)(c1ccc(Cl)cc1)N1CCN(C2CCN(Cc3ccccc3)CC2)CC1,-71.4
16,COc1ccc2c(c1)CCc1cc(C(=O)N3CCN(c4ccc(N5CCOCC5)nn4)CC3)sc1-2,-17.2
17,CC(=O)c1ccccc1OC(=O)CCN1C(=O)c2ccccc2C1=O,12.3
18,CCNc1nc(NC(C)C)nc(Oc2ccc(/C=N/O)cc2)n1,4.97
19,CC1Sc2ccc(S(=O)(=O)N(C)Cc3ccccc3)cc2NC1=O (stereo not shown),-9.27
20,O=S(=O)(NCC1(N2CCOCC2)CCCCC1)c1ccc(F)c(F)c1F,-7.48
21,CCOc1cc(C(c2c(C)[nH][nH]c2=O)c2c(C)[nH][nH]c2=O)ccc1OCc1ccc([N+](=O)[O-])cc1,1.68
22,COc1ccc(/C=C(\NC(=O)c2ccccc2)C(=O)NCCN2CCOCC2)cc1OC,23
23,COC(=O)c1cccc(C23CC4(C2)[C@H](CN(Cc2ccc(C(F)(F)F)cc2)[C@@H]4c2ccccc2)C3c2ccccc2)c1 (stereo partly shown),-13.5
24,O=C1C(NS(=O)(=O)c2cccs2)=C(N2CCN(c3cccc(C(F)(F)F)c3)CC2)C(=O)c2ccccc21,-4.83
25,O=[N+]([O-])/C=C1/CCCCCN1,19
26,CCOC(=S)SCC(=O)N1CCc2cc(OC)c(OC)cc2C1C1C(=O)CC(C)(C)CC1=O (stereo not shown),1.02
27,COc1ccc(N(CCC(=O)NCCc2ccccc2)S(=O)(=O)c2ccc(C)cc2C)cc1,-28.2
